The list shows a part of the results. Cut-off read from the data, not from the text of the source: active = 3.2 or more and inactive = the rest. Only a few entries rise above the background.
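Note: displayed peptides selected on beads carrying the immobilized SH2 domain, with library peptides lacking any tyrosine serving as negative controls.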

The first assay has as its target SHP2 C-SH2 domain E139D. Briefly: enrichment score (SH2-bound / input frequency) (ratio); bacterial display of known human phosphotyrosine sites (pTyr-Var adds point mutants) read by sequencing; higher = stronger binding; tyrosines were phosphorylated by kinases first. Particulars: peptide library: pTyr-Var.
Consider EILDVYIFLGP [GAA_Y340_G335E], for which the enrichment score was inactive: 0.965.
As for EFENSYIFDIN [GAB1_Y83], the enrichment score is inactive: 0.665.
Same read-out and setting: for DTDSSYCIPIA [GAB1_Y373_T377I] the value was inactive: 0.864; for KRGIDYILWHM [FRMD1_Y225_R228W], active: 3.89.
Consider PTATSYNPNLA [GABRA1_Y375_T376N], for which the enrichment score is inactive: 0.393.
On the same count and under the same terms, for YVPSNYVAEDR [FRK_Y104_I100V] the value was inactive: 0.748; for YSIDHYLGKEM [G6PD_Y202_R198S], inactive: 0.893.
Still for that read-out and setting: for EFENSCIFDIN [GAB1_Y83_Y83C] the value was inactive: 0.789.
On the same count and under the same terms, the same measure for FVPSNYVAEDR [FRK_Y104_I100V_YF]: inactive: 0.994.
Regarding YCIDHYLGKEM [G6PD_Y202_R198C], the enrichment score is inactive: 0.992.
With KLPDAYERFIL [G6PD_Y437_L440F], the enrichment score is inactive: 1.01.
In the case of GTHCHYKAPIV [FZD9_Y569_T573I], the enrichment score was active: 3.29.
Same read-out and setting: the same measure for GILDVYIFLGP [GAA_Y340]: inactive: 1.11; for YIPSNYVAEDR [FRK_Y104]: inactive: 0.709.
Still for that read-out and setting: for SGDVQYRSSVR [FREM2_Y2158_T2153S] the value was inactive: 0.434.
As for GTHCHYKAPTV [FZD9_Y569], the enrichment score was active: 3.36.
The same measure, in the same setting: for FPIDHYLGKEM [G6PD_Y202_R198P_YF] the value was inactive: 1.12; for FKELVYETVRV [FSHB_Y76], inactive: 1.07.

A further assay concerns the target SHP2 C-SH2 domain wild-type. The assay is described as above. The conditions noted are these: peptide library: pTyr-Var.
For the molecule EILDVYIFLGP [GAA_Y340_G335E], the enrichment score was inactive: 1.03.
As to EFENSYIFDIN [GAB1_Y83], the enrichment score is inactive: 0.636.
Regarding DTDSSYCIPIA [GAB1_Y373_T377I], the enrichment score was inactive: 0.865.
On the same count and under the same terms, for KRGIDYILWHM [FRMD1_Y225_R228W] the value was active: 3.59; for PTATSYNPNLA [GABRA1_Y375_T376N], inactive: 0.502; for YVPSNYVAEDR [FRK_Y104_I100V], inactive: 0.772.
As to YSIDHYLGKEM [G6PD_Y202_R198S], the enrichment score is inactive: 0.986.
Take EFENSCIFDIN [GAB1_Y83_Y83C]: the enrichment score was inactive: 0.77.
As to FVPSNYVAEDR [FRK_Y104_I100V_YF], the enrichment score is inactive: 0.916.
Turning to YCIDHYLGKEM [G6PD_Y202_R198C], the enrichment score was inactive: 1.07.
Same read-out and setting: for KLPDAYERFIL [G6PD_Y437_L440F] the value was inactive: 1.03; for GTHCHYKAPIV [FZD9_Y569_T573I], active: 3.4.
The same measure, in the same setting: the same measure for GILDVYIFLGP [GAA_Y340]: inactive: 1.34.
Still for that read-out and setting: for YIPSNYVAEDR [FRK_Y104] the value was inactive: 0.586; for SGDVQYRSSVR [FREM2_Y2158_T2153S], inactive: 0.434; for GTHCHYKAPTV [FZD9_Y569], inactive: 3.14.
Consider FPIDHYLGKEM [G6PD_Y202_R198P_YF], for which the enrichment score was inactive: 0.795.
As for FKELVYETVRV [FSHB_Y76], the enrichment score was inactive: 1.01.

For a further assay, the target named is SHP2 N-SH2 domain L43F. Described as above. The conditions noted are these: peptide library: pTyr-Var.
For the molecule EILDVYIFLGP [GAA_Y340_G335E], the enrichment score is inactive: 0.909.
Same read-out and setting: the same measure for EFENSYIFDIN [GAB1_Y83]: inactive: 0.537.
On to DTDSSYCIPIA [GAB1_Y373_T377I], for which the enrichment score is inactive: 0.986.
The same measure, in the same setting: the same measure for KRGIDYILWHM [FRMD1_Y225_R228W]: active: 3.56; for PTATSYNPNLA [GABRA1_Y375_T376N]: inactive: 0.717.
Turning to YVPSNYVAEDR [FRK_Y104_I100V], the enrichment score is inactive: 0.769.
Same read-out and setting: for YSIDHYLGKEM [G6PD_Y202_R198S] the value was inactive: 0.95.
For EFENSCIFDIN [GAB1_Y83_Y83C], the enrichment score is inactive: 0.676.
FVPSNYVAEDR [FRK_Y104_I100V_YF]: the enrichment score was inactive: 0.98.
On to YCIDHYLGKEM [G6PD_Y202_R198C], for which the enrichment score was inactive: 1.
Regarding KLPDAYERFIL [G6PD_Y437_L440F], the enrichment score was inactive: 0.878.
The same measure, in the same setting: the same measure for GTHCHYKAPIV [FZD9_Y569_T573I]: inactive: 2.79; for GILDVYIFLGP [GAA_Y340]: inactive: 1.14; for YIPSNYVAEDR [FRK_Y104]: inactive: 0.727.
Same read-out and setting: for SGDVQYRSSVR [FREM2_Y2158_T2153S] the value was inactive: 0.428.
On the same count and under the same terms, for GTHCHYKAPTV [FZD9_Y569] the value was active: 3.32.
Turning to FPIDHYLGKEM [G6PD_Y202_R198P_YF], the enrichment score was inactive: 1.05.
The same measure, in the same setting: for FKELVYETVRV [FSHB_Y76] the value was inactive: 0.991.

A further assay addresses SHP2 N-SH2 domain T42A. Described as above. The conditions noted are these: peptide library: pTyr-Var.
On to EILDVYIFLGP [GAA_Y340_G335E], for which the enrichment score is inactive: 1.09.
The same measure, in the same setting: for EFENSYIFDIN [GAB1_Y83] the value was inactive: 0.482.
On the same count and under the same terms, the same measure for DTDSSYCIPIA [GAB1_Y373_T377I]: inactive: 0.621.
For KRGIDYILWHM [FRMD1_Y225_R228W], the enrichment score was inactive: 3.15.
On the same count and under the same terms, for PTATSYNPNLA [GABRA1_Y375_T376N] the value was inactive: 0.449.
For the molecule YVPSNYVAEDR [FRK_Y104_I100V], the enrichment score was inactive: 0.775.
The same measure, in the same setting: the same measure for YSIDHYLGKEM [G6PD_Y202_R198S]: inactive: 1.19; for EFENSCIFDIN [GAB1_Y83_Y83C]: inactive: 0.878; for FVPSNYVAEDR [FRK_Y104_I100V_YF]: inactive: 0.857.
Still for that read-out and setting: the same measure for YCIDHYLGKEM [G6PD_Y202_R198C]: inactive: 0.818; for KLPDAYERFIL [G6PD_Y437_L440F]: inactive: 0.98; for GTHCHYKAPIV [FZD9_Y569_T573I]: inactive: 2.55.
Consider GILDVYIFLGP [GAA_Y340], for which the enrichment score was inactive: 1.05.
The same measure, in the same setting: the same measure for YIPSNYVAEDR [FRK_Y104]: inactive: 0.679.
The same measure, in the same setting: for SGDVQYRSSVR [FREM2_Y2158_T2153S] the value was inactive: 0.373; for GTHCHYKAPTV [FZD9_Y569], inactive: 3.02; for FPIDHYLGKEM [G6PD_Y202_R198P_YF], inactive: 0.869.
On the same count and under the same terms, for FKELVYETVRV [FSHB_Y76] the value was inactive: 0.88.

For the next assay, the target named is SHP2 N-SH2 domain T52S. Described as above. Particulars: peptide library: pTyr-Var.
As for EILDVYIFLGP [GAA_Y340_G335E], the enrichment score is inactive: 0.759.
The same measure, in the same setting: for EFENSYIFDIN [GAB1_Y83] the value was inactive: 0.647; for DTDSSYCIPIA [GAB1_Y373_T377I], inactive: 0.772.
On the same count and under the same terms, for KRGIDYILWHM [FRMD1_Y225_R228W] the value was active: 3.24; for PTATSYNPNLA [GABRA1_Y375_T376N], inactive: 0.623; for YVPSNYVAEDR [FRK_Y104_I100V], inactive: 0.767.
On the same count and under the same terms, the same measure for YSIDHYLGKEM [G6PD_Y202_R198S]: inactive: 1.13; for EFENSCIFDIN [GAB1_Y83_Y83C]: inactive: 0.74; for FVPSNYVAEDR [FRK_Y104_I100V_YF]: inactive: 1.11.
Take YCIDHYLGKEM [G6PD_Y202_R198C]: the enrichment score is inactive: 1.08.
Still for that read-out and setting: the same measure for KLPDAYERFIL [G6PD_Y437_L440F]: inactive: 0.903; for GTHCHYKAPIV [FZD9_Y569_T573I]: inactive: 3.19.
Turning to GILDVYIFLGP [GAA_Y340], the enrichment score is inactive: 0.929.
On the same count and under the same terms, the same measure for YIPSNYVAEDR [FRK_Y104]: inactive: 0.906; for SGDVQYRSSVR [FREM2_Y2158_T2153S]: inactive: 0.451; for GTHCHYKAPTV [FZD9_Y569]: active: 3.26.
The same measure, in the same setting: the same measure for FPIDHYLGKEM [G6PD_Y202_R198P_YF]: inactive: 0.983; for FKELVYETVRV [FSHB_Y76]: inactive: 0.822.

The target of the next assay is SHP2 N-SH2 domain wild-type. The description is as above. The conditions noted are these: peptide library: pTyr-Var.
As to EILDVYIFLGP [GAA_Y340_G335E], the enrichment score was inactive: 1.13.
On to EFENSYIFDIN [GAB1_Y83], for which the enrichment score is inactive: 0.585.
Still for that read-out and setting: the same measure for DTDSSYCIPIA [GAB1_Y373_T377I]: inactive: 1.01; for KRGIDYILWHM [FRMD1_Y225_R228W]: active: 3.41.
On the same count and under the same terms, the same measure for PTATSYNPNLA [GABRA1_Y375_T376N]: inactive: 0.471; for YVPSNYVAEDR [FRK_Y104_I100V]: inactive: 0.853; for YSIDHYLGKEM [G6PD_Y202_R198S]: inactive: 1.51.
The same measure, in the same setting: the same measure for EFENSCIFDIN [GAB1_Y83_Y83C]: inactive: 0.655; for FVPSNYVAEDR [FRK_Y104_I100V_YF]: inactive: 0.835.
For the molecule YCIDHYLGKEM [G6PD_Y202_R198C], the enrichment score was inactive: 0.867.
Take KLPDAYERFIL [G6PD_Y437_L440F]: the enrichment score is inactive: 1.07.
The same measure, in the same setting: for GTHCHYKAPIV [FZD9_Y569_T573I] the value was inactive: 3.11; for GILDVYIFLGP [GAA_Y340], inactive: 1.3.
On the same count and under the same terms, the same measure for YIPSNYVAEDR [FRK_Y104]: inactive: 0.884; for SGDVQYRSSVR [FREM2_Y2158_T2153S]: inactive: 0.53; for GTHCHYKAPTV [FZD9_Y569]: inactive: 2.67.
Still for that read-out and setting: for FPIDHYLGKEM [G6PD_Y202_R198P_YF] the value was inactive: 0.824; for FKELVYETVRV [FSHB_Y76], inactive: 0.93.

These data come from the supplement of paper PMC10369915.
